Measured values published in ChEMBL document CHEMBL4888484, “Replenishing the malaria drug discovery pipeline: Screening and hit evaluation of the MMV Hit Generation Library 1 (HGL1) against asexual blood stage Plasmodium falciparum ,using a nano luciferase reporter read-out” (2022).
Hit rate of the full screen: of about 150,000 compounds, about 540 (0.36%) showed an effect of 50% or more. The list shows a part of the results.

test system: Plasmodium falciparum; test: Primary screen in NF54 nanoGlo assay, in single point, at 2uM, 72h; a lower Z score goes with more inhibition; format: functional, Erythrocyte; details: timepoint 72 hour

| SMILES | % Inhibition | Z score |
| --- | --- | --- |
| Cc1ccc(C(=O)NCc2nc3cc(Cl)ccc3s2)c(=O)[nH]1 | -15% | 1.4 |
| CC(C)CN(CC(=O)N(Cc1ccc(F)cc1)C1CCN(C(=O)c2cccc(F)c2)CC1)S(=O)(=O)c1ccc(Cl)cc1 | -9% | 1.67 |
| CC1CN(Cc2ncnn2C(C)(C)C)CC(c2ccc(F)cc2)O1 (centres undefined) | 3% | -0.54 |
| Cc1cc(C(=O)NCCn2ccnc2)c(C)s1 | -5% | 0.67 |
| C[C@H](OC(=O)c1ccc2nc(N)sc2c1)C(=O)N1CCOCC1 | -5% | 0.65 |
| COc1ccc(Cn2nccc2NC(=O)NC23CC2COC3(C)C)c(OC)c1 (centres undefined) | 0% | 0.04 |
| Cc1cc([C@]2(C)NC(=O)N(Cc3nnc(C4CC4)o3)C2=O)c(C)o1 | -12% | 1.01 |
| COc1ccc(CNC2(C(=O)N3CCOCC3)CCCCC2)c(C)c1 | -8% | 1.28 |
| Cc1ccccc1N1CCN(C(=O)[C@H]2CCC(=O)N(CCc3ccccc3)C2)CC1 | -3% | 0.43 |
| CC1CC(C(=O)NC(Cc2cccc3ccccc23)C(=O)O)CCO1 (centres undefined) | -8% | 1.49 |
| CN1CCC2C(CCCN2C(=O)NCC2CC=CCC2)C1 (centres undefined) | -11% | 1 |
| CC(C)(C)c1nnc([C@H]2CCN(C(=O)C3CCCCC3)C2)o1 | 32% | -3.57 |
| CCCC(=O)N1CC(OCc2ccc(F)cc2)C1 | -9% | 1.39 |
| CCn1nc(C)cc1-c1cccc2nsnc12 | -17% | 2.67 |
| CN(CCCc1nccn1C)c1cc([C@H]2CCOC2)nc(N2CC(O)C2)n1 | -21% | 2.7 |
| COc1ccc(Br)c(CC(=O)NCc2noc(C)n2)c1 | -11% | 2.1 |
| CC(C)(C)OC(=O)N1CC(CCN2CCC=C(F)C2)C1 | -13% | 1.24 |
| Cc1nc2cc(N(C)C(=O)c3cc(C#N)c[nH]3)ccc2[nH]1 | 11% | -1.24 |
| CCc1nnc(N2CCC(c3ncncc3C)CC2)o1 | 11% | -1.95 |
| O=C(NCc1nnc2n1CCC2)c1ccccc1C(=O)c1ccc(Cl)cc1 | -16% | 2.19 |
| Cn1cnnc1CN1CCc2sccc2C1 | 8% | -1.07 |

| SMILES | % Inhibition | Z score |
| --- | --- | --- |
| Cc1nc(-c2cc(S(=O)(=O)Nc3cccc(F)c3)cn2C)sc1C(=O)N1CCOCC1 | 6% | -0.66 |
| COC[C@H]1CCN1C(=O)c1ccncc1F | -15% | 1.25 |
| CC(C)CC1(CNC(=O)COCc2nncn2C)CC1 | 0% | 0.04 |
| CCO[C@H]1C[C@@H](NC(=O)c2ccc(-c3nnc(C)[nH]3)cc2)C1 | -14% | 2.56 |
| CCn1cc(C2CCN(C(=O)NCc3cscn3)CC2)cn1 | 30% | -3.43 |
| O=C(NC1CCCS(=O)(=O)C1)C1CC1c1cccc(F)c1F (centres undefined) | -10% | 1.11 |
| CC(Cc1cccc(F)c1)C(=O)NC1CCN(C(N)=O)C1 (centres undefined) | -12% | 2.24 |
| N#CCC(=O)N[C@H](Cc1cccc(Br)c1)CC1CC1 | 6% | -0.61 |
| CN(C)c1cccc(S(=O)(=O)NC2(C(F)(F)F)CCOCC2)c1 | -4% | 0.54 |
| Cc1ccsc1-c1nc(CN2CCN(S(N)(=O)=O)CC2)c(C)o1 | -7% | 0.94 |
| CCOC(=O)NC[C@H](O)c1ccc(N(C)C)cc1 | -13% | 1.71 |
| Nc1nc(N)c2nc(-c3ccccc3-c3ccc(Cl)cc3)cnc2n1 | 3% | -0.36 |
| Cn1cnn(CCOCC(F)(F)C(F)(F)F)c1=O | -8% | 0.87 |
| CCc1noc(CN2C[C@@H]3CC[C@H]2CN(C2CCOCC2)C3)n1 | -2% | 0.36 |
| CCS(=O)(=O)N(Cc1cccc(OCCN2CCCCC2)c1)C1CC1 | -2% | 0.25 |
| C[C@@H](Cn1cccn1)Nc1nc(-c2ccccc2)nc2c1CCNCC2 | -1% | 0.14 |
| CN(C)c1ccc(C(=O)N[C@H]2C[C@H]3C(=O)NC[C@@H](CCC(=O)NCc4ccccc4)N3C2)cc1 | 0% | 0.07 |
| O=C([C@@H]1NCc2ncncc21)N1CCN(c2ccc(F)cc2)CC1 | 4% | -0.54 |
| O=C(CS(=O)(=O)c1ccc(F)cc1F)NCc1ccco1 | -16% | 2.8 |
| O=C(c1ccc2cc[nH]c2c1)N1CCC(N2CCC(Oc3ccccc3F)CC2)CC1 | 16% | -2.63 |
| CCN1CCC[C@@H]1CNC(=O)c1nn(-c2ccc(OC)cc2OC)c(=O)c2ccccc12 | 17% | -1.96 |
